Test results taken from the supplement of paper PMC8728848.
Some of the results follow.

Tests used:
Experiment in all cases: glycan array binding signal (z-score within array); higher = stronger binding
Settings in all cases: glycan notation: IUPAC condensed, linker removed
[1] = target: Fuc(a1-3)[Gal(b1-4)]GlcNAc(b1-3)Gal(b1-4)Glc
Summary of the method: (§1)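 The binding signal is a Z-score computed within each array and averaged over linkers. Arrays of the same protein sequence at different concentrations or buffers were also averaged together. Data originate from 3228 arrays in the Consortium for Functional Glycomics database, kept only where the protein sequence was available.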

[2] = target: Gal(b1-3)GalNAc(b1-4)[Neu5Ac(a2-3)]Gal(b1-4)Glc
Summary of the method: as §1

[3] = target: Gal(b1-3)GalNAc(b1-4)[Neu5Gc(a2-3)]Gal(b1-4)Glc
Summary of the method: as §1

[4] = target: Gal(b1-3)GlcNAc(b1-3)Gal(b1-4)Glc
Summary of the method: as §1

[5] = target: Gal(b1-3)GlcNAc(b1-3)[Gal(b1-4)GlcNAc(b1-6)]Gal(b1-4)Glc
Summary of the method: as §1

[6] = target: Gal(b1-3)[Neu5Ac(a2-6)]GlcNAc(b1-3)Gal(b1-4)Glc
Summary of the method: as §1

[7] = target: Gal(b1-4)GlcNAc
Summary of the method: as §1

[8] = target: Gal(b1-4)GlcNAc(b1-2)Man(a1-3)[Gal(b1-4)GlcNAc(b1-2)Man(a1-6)]Man(b1-4)GlcNAc(b1-4)GlcNAc
Summary of the method: as §1

[9] = target: Gal(b1-4)GlcNAc(b1-3)Gal(b1-4)Glc
Summary of the method: as §1

[10] = target: Neu(a2-3)Gal(b1-4)Glc
Summary of the method: as §1

[11] = target: Neu(a2-3)Gal(b1-4)GlcNAc(b1-3)Gal(b1-4)[Fuc(a1-3)]GlcNAc(b1-3)Gal(b1-4)Glc
Summary of the method: as §1

[12] = target: Neu(a2-3)Gal(b1-4)GlcNAc6S(b1-3)Gal(b1-4)Glc
Summary of the method: as §1

[13] = target: Neu(a2-3)Gal(b1-4)[Fuc(a1-3)]GlcNAc(b1-3)Gal(b1-4)Glc
Summary of the method: as §1

[14] = target: Neu(a2-3)Gal(b1-4)[Fuc(a1-3)]GlcNAc6S(b1-3)Gal(b1-4)Glc
Summary of the method: as §1

[15] = target: Neu(a2-3)Gal6S(b1-4)[Fuc(a1-3)]GlcN(b1-3)Gal(b1-4)Glc
Summary of the method: as §1

[16] = target: Neu(a2-6)Gal(b1-4)Glc
Summary of the method: as §1

[17] = target: Neu4Ac5Ac(a2-3)Gal(b1-4)Glc
Summary of the method: as §1

[18] = target: Neu5Ac(a2-3)Gal
Summary of the method: as §1

[19] = target: Neu5Ac(a2-3)Gal(b1-3)GalNAc(b1-4)Gal(b1-4)Glc
Summary of the method: as §1

[20] = target: Neu5Ac(a2-3)Gal(b1-3)GalNAc(b1-4)[Neu5Ac(a2-3)]Gal(b1-4)Glc
Summary of the method: as §1

[21] = target: Neu5Ac(a2-3)Gal(b1-3)GalNAc(b1-4)[Neu5Ac(a2-8)Neu5Ac(a2-3)]Gal(b1-4)Glc
Summary of the method: as §1

[22] = target: Neu5Ac(a2-3)Gal(b1-3)GlcNAc
Summary of the method: as §1

[23] = target: Neu5Ac(a2-3)Gal(b1-3)GlcNAc(b1-3)Gal(b1-4)Glc
Summary of the method: as §1

[24] = target: Neu5Ac(a2-3)Gal(b1-3)GlcNAc(b1-3)[Fuc(a1-3)[Gal(b1-4)]GlcNAc(b1-6)]Gal(b1-4)Glc
Summary of the method: as §1

[25] = target: Neu5Ac(a2-3)Gal(b1-3)[Fuc(a1-4)]GlcNAc
Summary of the method: as §1

[26] = target: Neu5Ac(a2-3)Gal(b1-3)[Fuc(a1-4)]GlcNAc(b1-3)Gal(b1-4)Glc
Summary of the method: as §1

[27] = target: Neu5Ac(a2-3)Gal(b1-3)[Neu5Ac(a2-6)]GalNAc
Summary of the method: as §1

[28] = target: Neu5Ac(a2-3)Gal(b1-3)[Neu5Ac(a2-6)]GlcNAc(b1-3)Gal(b1-4)Glc
Summary of the method: as §1

[29] = target: Neu5Ac(a2-3)Gal(b1-4)Glc
Summary of the method: as §1

[30] = target: Neu5Ac(a2-3)Gal(b1-4)GlcNAc
Summary of the method: as §1

[31] = target: Neu5Ac(a2-3)Gal(b1-4)GlcNAc(b1-2)Man(a1-3)[Neu5Ac(a2-3)Gal(b1-4)GlcNAc(b1-2)Man(a1-6)]Man(b1-4)GlcNAc(b1-4)[Fuc(a1-6)]GlcNAc
Summary of the method: as §1

[32] = target: Neu5Ac(a2-3)Gal(b1-4)GlcNAc(b1-3)Gal(b1-4)Glc
Summary of the method: as §1

[33] = target: Neu5Ac(a2-3)Gal(b1-4)GlcNAc6S(b1-3)Gal6S(b1-3)GlcNAc6S
Summary of the method: as §1

[34] = target: Neu5Ac(a2-3)Gal(b1-4)[Fuc(a1-3)]GlcNAc
Summary of the method: as §1

[35] = target: Neu5Ac(a2-3)Gal(b1-4)[Fuc(a1-3)]GlcNAc(b1-3)Gal
Summary of the method: as §1

[36] = target: Neu5Ac(a2-3)Gal(b1-4)[Fuc(a1-3)]GlcNAc(b1-3)Gal(b1-4)Glc
Summary of the method: as §1

[37] = target: Neu5Ac(a2-3)Gal(b1-4)[Fuc(a1-3)]GlcNAc(b1-3)Gal(b1-4)[Fuc(a1-3)]GlcNAc(b1-3)Gal(b1-4)Glc
Summary of the method: as §1

[38] = target: Neu5Ac(a2-3)Gal(b1-4)[Fuc(a1-3)]GlcNAc6S(b1-3)Gal(b1-4)Glc
Summary of the method: as §1

[39] = target: Neu5Ac(a2-3)Gal6S(b1-4)[Fuc(a1-3)]GlcNAc(b1-3)Gal(b1-4)Glc
Summary of the method: as §1

[40] = target: Neu5Ac(a2-3)Gal6S(b1-4)[Fuc(a1-3)]GlcNAc6S(b1-3)Gal(b1-4)Glc
Summary of the method: as §1

[41] = target: Neu5Ac(a2-3)[GalNAc(b1-4)]Gal(b1-3)GalNAc(b1-4)[Neu5Ac(a2-3)]Gal(b1-4)Glc
Summary of the method: as §1

[42] = target: Neu5Ac(a2-3)[GalNAc(b1-4)]Gal(b1-4)Glc
Summary of the method: as §1

[43] = target: Neu5Ac(a2-6)Gal(b1-3)GlcNAc(b1-3)[Fuc(a1-3)[Gal(b1-4)]GlcNAc(b1-6)]Gal(b1-4)Glc
Summary of the method: as §1

[44] = target: Neu5Ac(a2-6)Gal(b1-3)GlcNAc(b1-3)[Gal(b1-4)GlcNAc(b1-6)]Gal(b1-4)Glc
Summary of the method: as §1

[45] = target: Neu5Ac(a2-6)Gal(b1-4)Glc
Summary of the method: as §1

[46] = target: Neu5Ac(a2-6)Gal(b1-4)GlcNAc
Summary of the method: as §1

[47] = target: Neu5Ac(a2-6)Gal(b1-4)GlcNAc(b1-2)Man(a1-3)[Neu5Ac(a2-6)Gal(b1-4)GlcNAc(b1-2)Man(a1-6)]Man(b1-4)GlcNAc(b1-4)GlcNAc
Summary of the method: as §1

[48] = target: Neu5Ac(a2-6)Gal(b1-4)GlcNAc(b1-2)[Neu5Ac(a2-3)Gal(b1-4)GlcNAc(b1-4)]Man(a1-3)[Neu5Ac(a2-3)Gal(b1-4)GlcNAc(b1-2)Man(a1-6)]Man(b1-4)GlcNAc(b1-4)GlcNAc
Summary of the method: as §1

[49] = target: Neu5Ac(a2-6)Gal(b1-4)GlcNAc(b1-3)Gal(b1-4)Glc
Summary of the method: as §1

[50] = target: Neu5Ac(a2-6)Gal(b1-4)GlcNAc(b1-3)Gal(b1-4)[Fuc(a1-3)]Glc
Summary of the method: as §1

[51] = target: Neu5Ac(a2-6)Gal(b1-4)GlcNAc(b1-3)[Neu5Ac(a2-6)Gal(b1-4)GlcNAc(b1-6)]Gal(b1-4)Glc
Summary of the method: as §1

[52] = target: Neu5Ac(a2-6)Gal(b1-4)GlcNAc(b1-6)[Gal(b1-3)GlcNAc(b1-3)]Gal(b1-4)Glc
Summary of the method: as §1

[53] = target: Neu5Ac(a2-6)Gal(b1-4)[Fuc(a1-3)]GlcNAc(b1-3)Gal(b1-4)Glc
Summary of the method: as §1

[54] = target: Neu5Ac(a2-8)Neu5Ac
Summary of the method: as §1

[55] = target: Neu5Ac(a2-8)Neu5Ac(a2-3)Gal(b1-3)GalNAc(b1-4)[Neu5Ac(a2-3)]Gal(b1-4)Glc
Summary of the method: as §1

[56] = target: Neu5Ac(a2-8)Neu5Ac(a2-3)Gal(b1-3)GalNAc(b1-4)[Neu5Ac(a2-8)Neu5Ac(a2-3)]Gal(b1-4)Glc
Summary of the method: as §1

[57] = target: Neu5Ac(a2-8)Neu5Ac(a2-3)Gal(b1-4)Glc
Summary of the method: as §1

[58] = target: Neu5Ac(a2-8)Neu5Ac(a2-3)[Gal(b1-3)GalNAc(b1-4)]Gal(b1-4)Glc
Summary of the method: as §1

[59] = target: Neu5Ac(a2-8)Neu5Ac(a2-3)[GalNAc(b1-4)]Gal(b1-4)Glc
Summary of the method: as §1

[60] = target: Neu5Ac(a2-8)Neu5Ac(a2-8)Neu5Ac
Summary of the method: as §1

B1: MIC13 (Toxoplasma gondii), A0A125YWL1 (protein)
chain: IQLRQHRNGLGVEQSFVSEETDIVGGRISSLQAELDSYCHNRYKQLCDGGNKKFCDKTGVARYGTGIQSQQTAEWRCYFAEVLKPSGRKVQCVDDCGNYFPCLGVVDPNDTFHATAHNQILNFIKDGVEKHCSPFQMAGNNYCQGVLADTVARKDTGTASQKAKAWRCYKKDSLTYEARSICVDNCGGEIECPGGRSETSGELLSQHYTREKELQKVIESQSAPCHDACVATPINPPICADTESLLQSTKRSRAQRFIDDACQKLFNCHCKKDKKFCTTVVARKDRGRAGSQNDAEWRCYSLEELDFQKTNPSCIDECGNELPCQGAVPEESTHHITWTKLPSKIDEATQKFCTERQRAANDYCASEFADSLARYGPGAGDQTSQFRCIKKAAMRADAEGQCADSCKGTETCGGGRSRLDGPLSVDDVLNAHEGISEAMKSASTEC
[1]
  glycan array binding signal (z-score): -0.287
[2]
  glycan array binding signal (z-score): -0.287
[3]
  glycan array binding signal (z-score): -0.151
[4]
  glycan array binding signal (z-score): -0.287
[5]
  glycan array binding signal (z-score): -0.287
[6]
  glycan array binding signal (z-score): -0.287
[7]
  glycan array binding signal (z-score): -0.287
[8]
  glycan array binding signal (z-score): -0.287
[9]
  glycan array binding signal (z-score): -0.287
[10]
  glycan array binding signal (z-score): -0.234
[11]
  glycan array binding signal (z-score): -0.273
[12]
  glycan array binding signal (z-score): -0.287
[13]
  glycan array binding signal (z-score): -0.287
[14]
  glycan array binding signal (z-score): -0.287
[15]
  glycan array binding signal (z-score): -0.287
[16]
  glycan array binding signal (z-score): -0.287
[17]
  glycan array binding signal (z-score): 0.24
[18]
  glycan array binding signal (z-score): -0.287
[19]
  glycan array binding signal (z-score): -0.287
[20]
  glycan array binding signal (z-score): 0.447
[21]
  glycan array binding signal (z-score): 0.21
[22]
  glycan array binding signal (z-score): 0.678
[23]
  glycan array binding signal (z-score): -0.258
[24]
  glycan array binding signal (z-score): -0.243
[25]
  glycan array binding signal (z-score): 0.984
[26]
  glycan array binding signal (z-score): -0.287
[27]
  glycan array binding signal (z-score): 0.23
[28]
  glycan array binding signal (z-score): -0.022
[29]
  glycan array binding signal (z-score): -0.183
[30]
  glycan array binding signal (z-score): 0.782
[31]
  glycan array binding signal (z-score): -0.196
[32]
  glycan array binding signal (z-score): -0.287
[33]
  glycan array binding signal (z-score): 1.08
[34]
  glycan array binding signal (z-score): 0.174
[35]
  glycan array binding signal (z-score): -0.287
[36]
  glycan array binding signal (z-score): -0.287
[37]
  glycan array binding signal (z-score): -0.284
[38]
  glycan array binding signal (z-score): 0.435
[39]
  glycan array binding signal (z-score): 0.583
[40]
  glycan array binding signal (z-score): 2.31
[41]
  glycan array binding signal (z-score): -0.287
[42]
  glycan array binding signal (z-score): -0.045
[43]
  glycan array binding signal (z-score): -0.287
[44]
  glycan array binding signal (z-score): -0.287
[45]
  glycan array binding signal (z-score): -0.287
[46]
  glycan array binding signal (z-score): -0.275
[47]
  glycan array binding signal (z-score): -0.287
[48]
  glycan array binding signal (z-score): -0.282
[49]
  glycan array binding signal (z-score): -0.287
[50]
  glycan array binding signal (z-score): -0.287
[51]
  glycan array binding signal (z-score): -0.287
[52]
  glycan array binding signal (z-score): -0.287
[53]
  glycan array binding signal (z-score): -0.287
[54]
  glycan array binding signal (z-score): -0.287
[55]
  glycan array binding signal (z-score): -0.287
[56]
  glycan array binding signal (z-score): -0.287
[57]
  glycan array binding signal (z-score): -0.287
[58]
  glycan array binding signal (z-score): -0.287
[59]
  glycan array binding signal (z-score): -0.287
[60]
  glycan array binding signal (z-score): -0.287
